# Data: the supplement of paper PMC5499739
# In all, about 16,000 sequences were measured (“Z-score”: median about -0.37, highest 2% from about 3.1 on). The list shows a part of the results.
# Tested on: RBM10 RRM1-ZnF-RRM2 (GST-tagged construct)
# Experiment: RNAcompete 7-mer binding Z-score; higher = stronger binding preference
# Procedure: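 RNAcompete: 20 pmol GST-tagged RBM10 RNA-binding constructs were incubated with a designed RNA pool of about 241,000 sequences up to 41 nt (1.5 nmol) on glutathione beads for 30 min at 4 °C and washed. Bound RNAs were identified by microarray hybridisation. Each RNA 7-mer is scored by a one-sided Z-score of its enrichment, computed over probes that contain the 7-mer within longer pool sequences.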
row,Sequence,RNAcompete 7-mer binding Z-score
1,GGCCGUG,0.599
2,UUUGUUG,-0.242
3,CCCAAGG,-0.253
4,UUUAUGG,0.075
5,CCGCGUU,-0.817
6,CGAAGCG,0.782
7,GUGGCAU,0.887
8,GUCACGC,-0.315
9,AAUAAGG,1.52
10,GACGGUA,1.24
11,GCUCGUU,-0.577
12,CUUCAUG,-0.814
13,GAUCAAA,-0.275
14,GACAGGA,2.33
15,CGCUAGA,-0.486
16,AGUCCAA,-0.464
17,AUUCUGC,-0.748
18,GAUAUUU,-0.464
19,UCUAUUA,-0.686
20,GCGUAGA,0.403
21,GUCCAGC,-0.486
22,ACCGUGC,-0.464
23,ACUCAAU,-0.65

row,Sequence,RNAcompete 7-mer binding Z-score
1,GUUCAUA,-0.471
2,CGUGAUA,-0.0853
3,UAGUGAG,0.756
4,UACAAUC,-0.471
5,UUGCCCC,-0.624
6,UUCAAUG,0.0313
7,GCACCCG,-0.602
8,ACGUACA,-0.103
9,CGAAUUG,-0.00877
10,AUGUUGC,-0.391
11,ACGAAGU,0.0604
12,GAGGCCG,0.166
13,UGGGGCA,3.52
14,UAAACCA,-0.151
15,AUGCUUU,-0.85
16,AUAAUUU,-0.755
17,GUCGUAC,0.0823
18,GUCUAAC,-0.486
19,CGGGAUA,1.44
20,ACCAAGC,-0.471
21,GAACCUU,-0.788
22,CAUCGGA,-0.315
23,AGGCUUA,-0.431

row,Sequence,RNAcompete 7-mer binding Z-score
1,CCUCCUA,-0.763
2,GGAACGG,4.03
3,UCGGAGG,1.2
4,AGCGGGC,1.57
5,UUCAUGU,-0.632
6,GACUAAA,-0.191
7,AUCACGU,-0.395
8,GUCAAAU,-0.395
9,AUCGACU,-0.865
10,AAAAUCA,-0.3
11,GAGCAGC,0.119
12,CGGAACA,0.548
13,UGCUUAA,-0.763
14,ACUAUAG,-0.195
15,UUAUCUA,-0.61
16,UCGCCAC,-0.734
17,ACGGUAC,0.472
18,AUCGGGG,2.49
19,CUGACUU,-0.941
20,AUCCGGU,-0.202
21,CAUGCAU,-0.65
22,GUAUGGG,4.06
23,AGUCAUC,-0.679

row,Sequence,RNAcompete 7-mer binding Z-score
1,AACGCGG,0.457
2,CAGUUGU,-0.643
3,UCCUCCA,-0.744
4,UGGGCUU,0.854
5,ACAAGAC,-0.275
6,GCACUGG,0.72
7,ACGCGUA,-0.0452
8,GGGUAGC,2.69
9,AAGAAUG,1.09
10,GACUUUG,-0.708
11,AGGAACC,-0.0707
12,AAUAGGG,3.5
13,GAUCCAA,-0.464
14,AAAUGUA,0.0859
15,CAUGCGG,0.341
16,GGCCAUG,0.181
17,GCAACAC,-0.326
18,UAGGAUA,1.73
19,CAUGUGA,0.101
20,UCAUGUU,-0.431
21,UGGGUGU,2.62
22,GUAACCA,0.00944
23,GCGUCAC,-0.118

row,Sequence,RNAcompete 7-mer binding Z-score
1,AACGAAA,0.0786
2,ACUCCAU,-0.748
3,AGACUUA,-0.81
4,CCUCCAC,-0.712
5,AAGUCUC,-0.752
6,UUUUUCC,-0.748
7,AUCAGUU,-0.413
8,AUUGGUU,0.752
9,UCCGGCU,-0.719
10,CGCUCUA,-0.723
11,AGUCGUA,0.25
12,UAGUAUG,0.00944
13,CCGUGCG,-0.264
14,CUUGCAU,-0.919
15,UAAGAAU,-0.067
16,GAGCUAU,-0.202
17,UGGUAAA,1.02
18,ACACGUU,-0.65
19,UUGCGUA,-0.26
20,CCGGUCG,-0.482
21,CAGAAGG,2.37
22,UCAUACC,-0.748
23,AGGUUUU,0.396

row,Sequence,RNAcompete 7-mer binding Z-score
1,UAAGGUC,0.508
2,UUUUAGC,-0.686
3,UCUAGAU,-0.657
4,UUAAGUG,-0.00148
5,GAUUAUG,0.326
6,CGGGCGG,2.94
7,AUGGGGU,3.91
8,CUACAAU,-0.661
9,UUACCUC,-0.795
10,ACCUGCG,-0.785
11,CUUCCCG,-0.832
12,AGUUCUG,-0.599
13,ACGGUUG,1.31
14,CCAAAAU,-0.646
15,CCUGAAA,-0.715
16,GGCCUGA,-0.42
17,UCCUCGU,-0.61
18,UCGGUAA,0.363
19,UCUGGUA,-0.475
20,CGUCUAA,-0.57
21,UCGACAA,-0.289
22,AUCAAAU,-0.694
23,GAGACCA,-0.027

row,Sequence,RNAcompete 7-mer binding Z-score
1,GCUACGU,-0.205
2,UGGGGCG,2.66
3,CUCAUUC,-0.923
4,CUGCAUU,-0.788
5,GAAAUCU,-0.46
6,GGUAUUC,0.243
7,GCACACU,-0.49
8,CCUAAUC,-0.876
9,AUAAAAC,-0.355
10,CAAGCCC,-0.806
11,CGGCAUC,-0.304
12,GGCGCAC,0.17
13,AAAACCG,-0.413
14,AAAUAAG,0.202
15,CAUGUCC,-0.763
16,UAUGUGC,-0.198
17,ACAACUU,-0.708
18,AACCCAA,-0.493
19,UUUGCAU,-0.708
20,ACCUUUC,-1.01
21,GCGCAAC,-0.275
22,AAUACCA,-0.311
23,ACCAGGG,1.81

row,Sequence,RNAcompete 7-mer binding Z-score
1,GCUCCAC,-0.675
2,CCGCUAC,-0.868
3,GACCGAA,-0.639
4,CCAGCAU,-0.686
5,UUGAGGA,1.04
6,CCACCGA,-0.49
7,AGACGGA,1.04
8,AACUAAC,-0.679
9,CAGUAUC,-0.318
10,UACCACU,-0.566
11,GAAAGCU,0.0896
12,CUUUGCA,-0.806
13,UAUGCGG,0.836
14,CCUUGAA,-0.788
15,GCCAACA,-0.289
16,UAUUUGC,-0.752
17,CGCCUGU,-0.901
18,CUGCUAU,-0.752
19,UUGAACG,0.024
20,CAAUGAU,-0.111
21,CGACUUC,-0.865
22,ACUCGGC,-0.73
